# Experimental data as given in PMC7256200 (Frontiers in Microbiology, 2020).
# Molecular target: T1, AtYoeB toxin (Atu2017) from Agrobacterium tumefaciens, GST-His tag removed (Agrobacterium tumefaciens strC58, UniProt A9CID9 1-89)
# T1 sequence: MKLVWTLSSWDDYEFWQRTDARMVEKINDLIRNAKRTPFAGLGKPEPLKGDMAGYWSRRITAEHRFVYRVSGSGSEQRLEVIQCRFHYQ
# Experiment: BLI
binder,measurement,value
"His-AtYefM antitoxin (Atu2018) from Agrobacterium tumefaciens, pET15b construct, His tag kept (natural protein) MANVRFTEFRQNFATHFDRVLETRAPLLVTRQGKEAVVVLAEGEYESMQETLHLLSNPANASRLRASMGELERGDTIERDPTEE",Kd,0.653 ± 0.3 nM
